The text below walks through data of PubChem BioAssay (NCATS).

Structures are written as SMILES. Some of the results follow. The main result of the screen is listed elsewhere. These columns were measured beside it and carry no call. The list favours compounds with an active or inconclusive main result. Potencies come from curve fits of mixed quality, noted in brackets.
Tags describe the fitted curve by direction and shape.

The nature of this test: Cell-based coincidence reporter assay to measure PMP22 gene transcription in S16 Pmp22-F2sN cells - Confirmatory screen (AID 1508646). To be noted: S16 Schwann cells Pmp22-F2sN, dual luciferase, 24 h; measured here: FLuc reporter channel. Put shortly: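 S16 Schwann cells carrying a bioluminescent reporter in the Pmp22 3' UTR (Pmp22-F2sN) were treated with compounds for 24 h at 37C, then lysed; FLuc and then NLuc luminescence were read sequentially with a dual-luciferase kit on a CCD imager.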
As to `CCOc1ccc(C(=O)N2CCc3cc(OC)c(OC)cc3C2COc2ccc3c(C)cc(=O)oc3c2)cc1OCC` (centres undefined), the concentration at half-maximal activity (AC50) is 8.62 µM [falling, partial curve, poor fit].

Turning to `CCN(Cc1ccccc1)C(=O)c1nn(-c2ccc(OC)cc2)c(=O)c2c1c1ccccc1n2C`, the half-maximal activity concentration (AC50) was 17.2 µM [falling, partial curve, poor fit].

Regarding `CCCSc1ncc(Cl)c(C(=O)Nc2ccc(S(=O)(=O)N3CCCCC3C)cc2)n1` (centres undefined), the AC50 is 21.7 µM [falling, partial curve, poor fit].

As for `Cc1ccc(S(=O)(=O)Cc2ccc(C(=O)N3CCN(c4cccc(C)c4C)CC3)o2)cc1`, the AC50 is 19.3 µM [falling, partial curve, poor fit].

Regarding `COc1ccc(-c2c(C)nn3c(N4CCN(c5cc(Cl)ccc5C)CC4)cc(C)nc23)cc1OC`, the AC50 was 17.2 µM [falling, partial curve, poor fit].

As to `CCn1c(CN2CCCCC2)nc2cc(NC(=O)COc3ccccc3C(C)(C)C)ccc21`, the AC50 is 17.2 µM [falling, partial curve, poor fit].

Consider `Cc1ccc(CNC(=O)c2ccc(Nc3nc4ccccc4n4nnnc34)cc2)cc1`, for which the half-maximal activity concentration (AC50) is 7.69 µM [falling, full curve].

As for `CCn1cc(C(=O)NCCc2ccc(OC)c(OC)c2)c(=O)c2cc(S(=O)(=O)N3CCCCCC3)ccc21`, the AC50 is 27.3 µM [falling, partial curve, poor fit].

Turning to `CCOc1ccc(CN2C(=O)C(=O)c3cccc(C)c32)cc1OC`, the AC50 was 13.7 µM [falling, full curve, poor fit].
